Source: publication PMC4336329 (PLoS ONE, 2015)
Out of some 310,000 compounds screened, about 14,000 (4.5%) showed an effect of 50% or more. The effect is printed as a negative number. Some of the results follow.

These compounds were tested against human ether-à-go-go-related gene (hERG) potassium channel (human, UniProt Q12809) (assay: primary screen, population patch clamp on CHO cells stably expressing hERG).
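Further: peak tail current of the secondary pulse compared with the same well before compound.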

human ether-à-go-go-related gene (hERG) potassium channel, sequence (Q12809 whole entry, looked up): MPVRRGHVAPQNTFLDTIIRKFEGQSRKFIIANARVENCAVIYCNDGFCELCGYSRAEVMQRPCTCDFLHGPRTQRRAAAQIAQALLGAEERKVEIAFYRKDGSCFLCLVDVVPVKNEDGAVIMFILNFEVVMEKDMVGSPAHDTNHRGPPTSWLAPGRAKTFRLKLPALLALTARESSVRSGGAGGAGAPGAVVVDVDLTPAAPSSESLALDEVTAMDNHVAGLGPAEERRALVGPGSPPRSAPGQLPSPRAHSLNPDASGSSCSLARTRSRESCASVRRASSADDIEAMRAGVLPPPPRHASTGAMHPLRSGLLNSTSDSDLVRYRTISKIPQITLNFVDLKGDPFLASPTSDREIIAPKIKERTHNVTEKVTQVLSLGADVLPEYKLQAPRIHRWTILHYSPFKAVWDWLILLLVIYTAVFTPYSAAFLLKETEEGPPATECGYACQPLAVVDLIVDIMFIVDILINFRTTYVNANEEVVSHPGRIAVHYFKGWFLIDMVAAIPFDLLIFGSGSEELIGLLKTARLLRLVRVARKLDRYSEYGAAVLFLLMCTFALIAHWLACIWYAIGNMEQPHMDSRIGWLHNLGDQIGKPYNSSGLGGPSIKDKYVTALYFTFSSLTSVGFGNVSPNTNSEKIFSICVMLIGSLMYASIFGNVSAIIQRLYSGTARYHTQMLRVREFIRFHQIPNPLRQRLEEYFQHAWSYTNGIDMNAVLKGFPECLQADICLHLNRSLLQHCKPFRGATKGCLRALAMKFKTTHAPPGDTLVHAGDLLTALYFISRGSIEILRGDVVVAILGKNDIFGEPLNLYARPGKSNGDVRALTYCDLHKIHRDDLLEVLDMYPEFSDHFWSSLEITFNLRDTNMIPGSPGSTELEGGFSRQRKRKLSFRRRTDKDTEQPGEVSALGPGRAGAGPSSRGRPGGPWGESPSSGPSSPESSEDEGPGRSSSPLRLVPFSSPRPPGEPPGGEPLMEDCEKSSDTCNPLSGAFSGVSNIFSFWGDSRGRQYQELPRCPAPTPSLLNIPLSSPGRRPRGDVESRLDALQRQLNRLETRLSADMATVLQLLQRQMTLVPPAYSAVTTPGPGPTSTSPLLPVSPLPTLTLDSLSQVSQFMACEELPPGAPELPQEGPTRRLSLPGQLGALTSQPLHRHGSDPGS

Row | Structure (SMILES) | hERG current change (%, negative = inhibition) at 10uM
1 | c1ccc(-c2nnc3sc(-c4cc5ccccc5o4)nn23)cc1 | 15.1%
2 | COCC1CCCCN1Cc1cn(-c2ccccc2)nc1-c1ccc2c(c1)OCO2 (stereo not drawn) | -37.1%
3 | NC(=O)COc1ccc(/C=N/NS(=O)(=O)c2ccccc2)cc1 | 13.7%
4 | CC1CCC(NC(=O)COC(=O)c2cccnc2Cl)CC1 (stereo not drawn) | -35.8%
5 | CCCNC(=O)c1nc(C)n(-c2cc(Cl)ccc2Cl)n1 | -0.534%
6 | Cc1ccc(OCC(=O)OCC(=O)NC2CCCC2)cc1C | 15.6%
7 | O=c1[nH]c2c(s1)C(c1ccccc1)C1C3CCC(C3)C1S2 (stereo not drawn) | 4.73%
8 | CC(=O)Nc1ccc(S(=O)(=O)N2CCN(c3cc(C)ccc3C)CC2)cc1 | -9.12%
9 | Cl.Clc1cccc(OCCN2CCCC2)c1 | 2.13%
10 | O=C(Nc1ccc(F)cc1Cl)C1CCN(C(=O)Nc2ccccc2)CC1 | 3.16%
11 | Cc1cc(C(=O)NCCc2ccc(Cl)cc2)n(-c2ccccc2)n1 | 3.38%
12 | COc1ccc(CC2(CO)CCN(S(=O)(=O)N(C)C)CC2)cc1 | 9.82%
13 | CCOc1cc(C(=O)NCc2ccncc2)cc(OCC)c1OCC | 2.4%
14 | CC1(C)CC(=O)C2=C(C1)Oc1ncn(CCO)c(=N)c1C2c1ccccc1 (stereo not drawn) | -35.3%
15 | CCc1nnc(NC(=O)/C=C/c2ccc(C)o2)s1 | -13.9%
16 | COc1ccccc1C(=O)OCCCN=C1NS(=O)(=O)c2ccccc21 | 9%
17 | Cc1cccc(C(=O)N[C@H](C(=O)Nc2nccs2)C(C)C)c1 | 6.12%
18 | Cc1ccsc1/C=N/NC(=O)c1sccc1C | 13.2%
19 | CCCCn1c(N)c(N(CCC(C)C)C(=O)c2cc(CC)c(C)s2)c(=O)[nH]c1=O | 7.2%
20 | CC(=O)N1CC2(C)CN(C(C)=O)CC(C)(C1)C2=O | 2.37%
21 | CCc1ccc(CNC(=O)CCC(=O)n2ncc3cc(C)ccc32)cc1 | 19%
22 | COc1ccc(-c2nc(O)c3cnccn23)cc1 | 14.1%
23 | O=C(Nc1ccsc1C(=O)O)c1ccccc1 | 24.8%

Row | Structure (SMILES) | hERG current change (%, negative = inhibition) at 10uM
24 | COc1ccc(NC(=O)CSC(C)c2nc3ccccc3c(=O)[nH]2)cc1 (stereo not drawn) | 9.38%
25 | CCOc1ccc(/C=N/NC(=S)Nc2c(C)cccc2C)cc1 | 7.13%
26 | CCOC(=O)C1CCCN(c2c(NCc3ccco3)c(=O)c2=O)C1 (stereo not drawn) | -3.85%
27 | CCc1ccccc1N(CC(=O)NC1CCCC1)C(=O)CNC(=O)c1cccs1 | -8.04%
28 | Cc1ccc(N=C2NC(=O)/C(=C/c3cccnc3)S2)cc1C | 16%
29 | CCN(CC)CCN(C(=O)c1ccc(S(=O)(=O)N(C)C2CCCCC2)cc1)c1nc2ccc(OC)cc2s1.Cl | 0.617%
30 | CCc1noc(C)c1C(=O)Nc1cccc2ncccc12 | 20.1%
31 | Cn1ncc2c(Nc3ccc(-c4ccccc4)cc3)ncnc21 | 6.9%
32 | COc1ccc(Cl)cc1N(CC(=O)NCC(C)C)S(=O)(=O)c1ccc(C)c([N+](=O)[O-])c1 | 8.34%
33 | Cc1cccc(OC(C)C(=O)NC2CCS(=O)(=O)C2)c1C (stereo not drawn) | 2.9%
34 | Brc1ccccc1-c1nnc2sc(-c3ccc4c(c3)OCCO4)nn12 | -8.44%
35 | O=C(COC(=O)CSCC(=O)N1CCCCC1)Nc1ccc(Cl)cc1 | -10.9%
36 | O=S(=O)(Nc1ccc(F)cc1)c1ccc(NC(=S)Nc2ccccc2)cc1 | 1.21%
37 | CCOC(=O)c1cncc(NC(=O)c2ccccc2)c1 | 5.68%
38 | COc1ccccc1C(=O)Nc1ccc(S(=O)(=O)N2CCCCC2)cc1 | -20.8%
39 | CCOC(=O)c1cnc(SCc2ccccc2)nc1N | -7.85%
40 | CCOc1ccccc1CNC(=O)c1ccc(NC(=O)C2=C(C)OCCS2)cc1 | 11.8%
41 | COC(=O)c1ccc(CN2CCC(n3nccc3NC(=O)C3CC3)CC2)cc1 | -55.6%
42 | CCOC(=O)c1c(C)[nH]c(C)c1C(=O)CSc1ncccn1 | -2.23%
43 | CCN(CC)C(=O)/C(=C\c1ccc(Br)cc1)NC(=O)c1ccccc1OC | -27.3%
44 | Cn1nc(C(F)(F)F)c(C(=O)Nc2cccc(C(F)(F)F)c2)c1SCc1ccc(Cl)cc1 | -8.86%
45 | COc1ccc(OC)c(Nc2nc3nonc3nc2N2CCCCC2)c1 | 14.4%
46 | CC1CCCN(CCCNC(=O)c2ccc(CS(=O)(=O)Cc3cccc(Cl)c3)o2)C1 (stereo not drawn) | -40.7%

Row | Structure (SMILES) | hERG current change (%, negative = inhibition) at 10uM
47 | COc1cccc(NC(=O)CCN2CCN(c3ccccc3F)CC2)c1 | -12%
48 | COc1cc(C2=NOC(C(=O)Nc3c(C)n(C)n(-c4ccccc4)c3=O)C2)cc(OC)c1OC (stereo not drawn) | -3.79%
49 | NC(=O)c1ccc(NC(=O)COC(=O)/C=C/c2ccc3c(c2)OCO3)cc1 | 11.8%
50 | O=C(NCCc1c[nH]c2ccccc12)C1Cc2ccccc2CN1C(=O)c1ccco1 (stereo not drawn) | -71.6%
51 | C[C@@]12CCC=C[C@H]1[C@H](c1ccc(C(F)(F)F)cc1)N(Cc1ccccc1)C2=O | 12.2%
52 | CCNC(=O)NC(=O)COC(=O)CCCc1nc2ccccc2s1 | 6.11%
53 | CCOC(=O)CCC(=O)N1CCNC(=O)C1 | -1.43%
54 | CCOC(=O)C1CCN(S(=O)(=O)c2ccc3c(c2)NC(=O)C(C)S3)CC1 (stereo not drawn) | 4.7%
55 | CC(=O)Nc1ccc(NC(=O)C(C)OC(=O)c2ccc(C)s2)cc1 (stereo not drawn) | 3.53%
56 | Cc1nn(C)c(C)c1NC(=O)CCCSc1nc(-c2ccco2)cc(C(F)(F)F)n1 | -0.504%
57 | CC(C)c1ccc(/C=C(\NC(=O)c2ccccc2)C(=O)NCCCn2ccnc2)cc1 | -78.2%
58 | Cc1cc(/C=C/C(=O)O)c(C)n1-c1ccc(Cl)cc1 | 11.6%
59 | CC(=O)c1nnn(-c2ccccc2C#N)c1C | 8.41%
60 | O=C(c1cccs1)N(c1cccc(Cl)c1)C1C=CS(=O)(=O)C1 (stereo not drawn) | -6.14%
61 | S=C(NCCc1ccccn1)Nc1ccc(Cl)cc1 | 8.01%
62 | COC(=O)CN1C(c2cccc(Cl)c2)=Nc2ccc(Cl)cc2C1c1ccccc1 (stereo not drawn) | 1.61%
63 | O=C(Nc1c(-c2ccccc2)nc2ccccn12)c1cccc(F)c1 | 8.95%
64 | COc1ccc(C(=O)OCC(=O)Nc2ccc(F)c(F)c2)cc1OC | 0.471%
65 | CC1=C(c2ccccc2)C(=S)NC(C)(C)C1 | 1.56%
66 | Cc1cc(Cl)c(OCCOCCN2CCNCC2)c(Cl)c1.O=C(O)C(=O)O | -7.47%
67 | COc1ccc(-n2cnnc2SCC(=O)Nc2cccnc2Cl)cc1 | -18.7%
68 | CCC(C(=O)Nc1cc(C)on1)c1ccccc1 (stereo not drawn) | -1.18%
69 | N#Cc1ccccc1OCC(=O)NC(=O)NCc1ccco1 | 7.21%

Row | Structure (SMILES) | hERG current change (%, negative = inhibition) at 10uM
70 | CC(=O)N1N=C(c2ccc(C)o2)CC1c1ccc(Br)cc1 (stereo not drawn) | -6.45%
71 | COc1ccccc1N1CCN(C(=O)c2ccc(Cl)c(S(=O)(=O)N3CCCC3)c2)CC1 | -38%
72 | CC(C)CNc1nc(N)c([N+](=O)[O-])c(N2CCCCCC2)n1 | -0.987%
73 | Br.CC(C)CCC1CC(CSC(=N)N)OC1=O (stereo not drawn) | -14%
74 | CC(NC(=O)C1=CC=CN2CCS(=O)(=O)N=C12)c1ccc(Cl)cc1Cl (stereo not drawn) | -57.9%
75 | COc1ccc(Cc2nnc(NC(=O)c3c(-c4ccccc4)noc3C)s2)cc1OC | -11.9%
76 | CCN(CC)S(=O)(=O)c1ccc(NC(=O)c2ccc(Sc3nncn3C)c([N+](=O)[O-])c2)cc1 | -49.6%
77 | CC(C)NC(=O)NC(=O)CSc1nnc(COc2ccccc2Cl)o1 | -14.6%
78 | CCc1ccc(NS(=O)(=O)c2cc3c(cc2C)n(C)c(=O)c(=O)n3C)cc1 | -15.5%
79 | CN(N)c1nc(N2CCCC2)nc(N2CCCC2)n1 | -16.6%
80 | CC1(C(=O)NC2CCCCCC2)CCC(=O)N1Cc1ccc2c(c1)OCO2 (stereo not drawn) | -9.41%
81 | COc1cccc(CNC(=O)CCC2CCCN(C(=O)c3ccc(C)nc3)C2)c1 (stereo not drawn) | 9.47%
82 | C=CCN(CC=C)C(=O)CN1C(=O)NC(c2ccccc2)(c2ccccc2)C1=O | -20.2%
83 | O=C(NC(=S)NC1CCCCC1)c1ccccc1[N+](=O)[O-] | 15.3%
84 | O=C(CSc1nnc(Cn2c(=O)sc3ccccc32)n1CCc1ccccc1)N1CCCC1 | -4.26%
85 | CCCOc1cccc(CN2CCCCC2c2cccnc2)c1.Cl (stereo not drawn) | -8.51%
86 | O=C(Nc1cccn(Cc2cccc(F)c2)c1=O)NC1CCCCC1 | -33.6%
87 | COc1ccccc1/C=C(\C#N)C(=O)c1cccn1C | 5.95%
88 | CN1CCN(C(c2cccc(C(F)(F)F)c2)c2nnnn2Cc2ccccc2)CC1 (stereo not drawn) | -23.8%
89 | Cc1ccccc1C(=O)NC1CCN(C(=O)N2CCOCC2)CC1 | 15.5%
90 | O=C(NCCc1nnc2ccccn12)c1cccs1 | 4.04%
